Data from PubChem BioAssay AID1240 (Sanford-Burnham Center for Chemical Genomics, 2008).
In all, about 50,000 compounds went through this assay and about 800 (1.6%) showed an effect of 50% or more. The list shows a part of the results.

Molecular target: Bcl-2-like protein 10 (Homo sapiens) (UniProt Q9HD36)
Assay: Phenotype converters, Bcl-B/TR3 peptide binding displacement, primary biochemical FP (AID 1240);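 note: 0% = Bcl-B with tracer peptide and DMSO and 100% = tracer peptide lacking Bcl-B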
Settings: GST-Bcl-B / FITC-TR3 peptide fluorescence polarization; stronger effect = higher value; compound at 3.75 mg/L

Sequence of UniProt Q9HD36 (Q9HD36 whole entry, looked up): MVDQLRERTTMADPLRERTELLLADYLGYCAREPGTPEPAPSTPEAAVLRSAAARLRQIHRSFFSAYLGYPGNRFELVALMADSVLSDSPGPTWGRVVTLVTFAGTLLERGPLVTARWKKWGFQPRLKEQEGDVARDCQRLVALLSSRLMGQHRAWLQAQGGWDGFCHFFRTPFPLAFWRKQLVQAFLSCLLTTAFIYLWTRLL

Row | SMILES | displacement [%]
1 | CCN1C(=O)/C(=C\c2cccc(OS(=O)(=O)c3ccc(C)cc3)c2)SC1=S | -7.4
2 | CCN(CC)S(=O)(=O)c1cc(C(=O)OCc2ccccc2)ccc1Br | -8.7
3 | COc1ccccc1N1CCN(/N=C\c2ccccc2OCC(=O)O)CC1 | -2.4
4 | COc1ccccc1CNCc1ccc([N+](=O)[O-])cc1 | 2
5 | O=C(Nc1ccc(I)cc1Cl)c1ccc(-c2cccc(Cl)c2)o1 | 14.6
6 | COc1ccc(-c2cc(C(=O)Nc3cccc(C)c3)c3ccccc3n2)cc1 | -13
7 | COc1cc(/C=C2/SC(=S)N(c3ccccc3)C2=O)ccc1OS(=O)(=O)c1ccc(C)cc1 | 9.7
8 | Cc1ccc(C(=O)Nc2cccc(Oc3ccccc3)c2)o1 | -8.5
9 | COc1cccc(C(c2c(C)[nH]n(-c3ccccc3)c2=O)c2c(C)[nH]n(-c3ccccc3)c2=O)c1O | 5.6
10 | COc1cc([N+](=O)[O-])ccc1NC(=O)c1ccc(C)c(C)c1 | 6.2
11 | COc1ccc(-c2cc(C(F)(F)F)n3ncc(C(=O)N4CCN(Cc5ccccc5)CC4)c3n2)cc1 | -3.9
12 | COC(=O)c1ccc(NC(=S)NC(=O)/C=C/c2ccc(C)cc2)cc1 | 3.1
13 | COc1ccc(/C=C(\NC(=O)c2ccc(Cl)cc2)C(=O)NCc2ccco2)cc1OC | 8.8
14 | CSc1ccc(/C=N\NC(=O)COc2ccc(C)cc2)cc1 | 11.8
15 | C=CCNC(=O)C(=O)NCCN1CCOCC1 | 7.7
16 | COc1cc(C(=O)N/C(=C/c2ccc(Br)cc2)C(=O)NCCC(=O)O)cc(OC)c1OC | -3.8
17 | O=C1c2ccccc2C(=O)N1CC1=NCCc2ccccc21 | 0.5
18 | NNC(=O)c1ccc(OCc2ccc(Cl)cc2)cc1 | 12.7
19 | CCOC(=O)c1ccc(-n2c(C)cc(/C=N/n3cnnc3)c2C)cc1 | 12.1
20 | O=C(c1ccccc1I)N1CCN(c2cccc(Cl)c2)CC1 | 3.8
21 | CCOC(=O)c1cccc(NC(=O)COc2ccccc2)c1 | 4.5
22 | COC(=O)C1=C(O)/C(=C\c2ccccc2)N=C1C | 13.5
23 | CC(=O)Nc1ccc(Cl)c(-c2nc3cc(C)c(C)cc3o2)c1 | 15.4
24 | COc1ccccc1-n1c(SCC(=O)c2ccccc2)nc2ccccc2c1=O | -4.7

Row | SMILES | displacement [%]
25 | C=CCOC(=O)C1=C(C)NC(C)=C(C(=O)OCC=C)C1c1ccc(OC)c(OC)c1 | 8.5
26 | O=[N+]([O-])c1ccc(S(=O)(=O)Nc2ccc3c(c2)OCCO3)cc1 | -8.9
27 | CCN(Cc1ccccc1)C(=O)c1ccccc1[N+](=O)[O-] | -11.3
28 | O=C(CSc1n[nH]c(-c2ccccc2)n1)c1cccc([N+](=O)[O-])c1 | -12.7
29 | N#Cc1c2n(c3c(=O)n(Cc4ccc(Cl)cc4)cnc13)CCCC2 | -2
30 | CCn1c2ccccc2c2cc(/C=N/N3CCN(c4ccccc4OC)CC3)ccc21 | -8.2
31 | CCOc1ccccc1/C=N\n1c(C)nnc1C | 0.4
32 | O=C(NCc1ccccc1)C(=O)Nc1c(O)c2ccccc2[nH]c1=O | -5.2
33 | O=C1C(Nc2ccccc2)=CC(Nc2ccccc2)/C1=C\c1ccccc1 (stereo unspecified) | 7.2
34 | CCOC(=O)c1c(NC(=O)CSc2nnc3c(n2)[nH]c2ccccc23)sc2c1CCCC2 | -10.2
35 | CCCC(CCC)C(=O)Nc1ccc2c(c1)N(C(=O)CN1CCN(C)CC1)c1ccccc1CC2 | -6.7
36 | CCOc1ccc(Nc2cc(C)c3ccccc3n2)cc1 | 12.7
37 | C=C(C)CSc1nc(SCC(=C)C)c2c3c(sc2n1)COC(C)(C)C3 | -1.2
38 | COc1cccc(NC(=O)/C=C/c2ccc(OC)c(Br)c2)c1 | 13.6
39 | COCCNCCOc1c(C)cc(Cl)cc1C | 7.2
40 | CCOC(=O)CNC(=O)c1cccc(Cl)c1 | 13.7
41 | C/C(=N\N1CCN(Cc2cccc3ccccc23)CC1)c1ccncc1 | -7.1
42 | Cc1cccc(N2C(=O)/C(=C/c3cc(C)n(C)c3C)C(=O)NC2=S)c1 | 1.9
43 | N#C/C(C(=O)c1ccccc1)=C1/CCCN1 | 0.5
44 | CCc1c(C#N)c(N)nc2sc(C(=O)Nc3ccc(Br)cc3)c(N)c12 | 1.3
45 | COc1ccc(CN2CCN(C(=O)c3cccs3)CC2)c(OC)c1OC | -5.4
46 | CCc1cccc2c1=NC(=O)C=2c1sc(=S)[nH]c1O | 1.7
47 | Cc1ccccc1C(=O)O/N=C(\N)c1ccccc1 | -4.8
48 | COc1ccc(S(=O)(=O)NC(C)C2C3CC4CC(C3)CC2C4)cc1 (stereo unspecified) | 8.2

Row | SMILES | displacement [%]
49 | Cc1ccc(NC(=O)COc2ccc(Br)cc2)c([N+](=O)[O-])c1 | -4.7
50 | O=C(O)CCCCCC1CCNC(=O)N1 (stereo unspecified) | -3.9
51 | O=[N+]([O-])c1cccc(C=NCCCN2CCOCC2)c1 | -7.3
52 | CC1CCN(CCCCOc2c(Cl)cccc2Cl)CC1 | 14.8
53 | C=CCOc1nc(-c2ccc(Br)cc2)nc2ccccc12 | 16.4
54 | O=C1C(c2ccccc2)=NOC12CCCC2 | 0.3
55 | Cc1ccc(C)c(NC(=O)CN(c2ccc(Br)cc2)S(C)(=O)=O)c1 | 3.9
56 | Cc1cc(OCC(=O)Nc2ccccn2)cc(C)c1Cl | -7.2
57 | COc1ccc([N+](=O)[O-])cc1/C=C1/C(=O)NC(=O)N(c2ccc(C(C)C)cc2)C1=O | -10.4
58 | CC1=NN(c2cccc(C(=O)O)c2)C(=O)/C1=C\c1ccc(F)cc1 | -2.9
59 | O=C(c1ccc(S(=O)(=O)N2CCCCC2)cc1)N1CCN(c2ccccc2)CC1 | -2.5
60 | CCOC(=O)C1=C(C)N=c2s/c(=C/c3ccccn3)c(=O)n2C1c1ccccc1Cl (stereo unspecified) | -0.4
61 | COc1ccccc1CC(=O)Nc1ccc(F)cc1 | -2.9
62 | COc1cc(OC)cc(C(=O)Nc2cc3nn(-c4ccc(C)cc4)nc3cc2C)c1 | -3.8
63 | Brc1ccc2c(c1)c(-c1ccccc1)nc1nnnn12 | 7.3
64 | O=Cc1cc(Br)ccc1OCc1c(F)cccc1Cl | 0.3
65 | COc1ccc(/C=N/c2ncn[nH]2)cc1OC | -6.4
66 | CCCOc1ccc(-c2cc(OCC)c3c(C)oc(C)c3c(=O)c2)cc1 | 22.4
67 | COc1nc(Nc2ccccc2)nc(NC(C)(C)C)n1 | 4.3
68 | CC(C)(C)c1cc(C(F)(F)F)nc(NC(=O)NS(=O)(=O)c2ccccc2Cl)n1 | 17.9
69 | CCOc1cccc(C2Nc3ccccc3NC3=C2C(=O)CC(c2ccc(OC)cc2)C3)c1 (stereo unspecified) | -6.8
70 | CN1CCN(C(=O)C(=O)Nc2ccc3c(c2)OCO3)CC1 | 0.6
71 | O=C(/C=C/c1cc(Br)cs1)Nc1ccccc1[N+](=O)[O-] | 12.4
